Source: paper PMC6175577, “BRCT domains of the DNA damage checkpoint proteins TOPBP1/Rad4 display distinct specificities for phosphopeptide ligands” (eLife, 2018)
No constants are given. Whether binding was seen depends on the method and setting. Some binding calls cover weakened binding; strength is not graded here.

Target: T1, Mdb1 pS216, pT218 fluorescein-labelled phosphopeptide (SDT site) (S. pombe)
T1 sequence (peptide, fluorescein on the N-terminus; phosphoserine at 216; phosphothreonine at 218): GYGVEGDHSSDTEEEVVS
Assay: fluorescence polarisation; fluorescein-labelled peptide at 200 nM, increasing concentrations of recombinant protein; room temperature; 25 mM HEPES pH 7.5, 150 mM NaCl, 1 mM EDTA, 0.25 mM TCEP, 0.02% Tween-20; one site-specific binding model; both purified

binding: binds
B1: S. pombe Nbs1 (protein, UniProt O43070 1-613)
chain: MWIIEAEGDILKGKSRILFPGTYIVGRNVSDDSSHIQVISKSISKRHARFTILTPSEKDYFTGGPCEFEVKDLDTKFGTKVNEKVVGQNGDSYKEKDLKIQLGKCPFTINAYWRSMCIQFDNPEMLSQWASNLNLLGIPTGLRDSDATTHFVMNRQAGSSITVGTMYAFLKKTVIIDDSYLQYLSTVKESVIEDASLMPDALECFKNIIKNNDQFPSSPEDCINSLEGFSCAMLNTSSESHHLLELLGLRISTFMSLGDIDKELISKTDFVVLNNAVYDSEKISFPEGIFCLTIEQLWKIIIERNSRELISKEIERLKYATASNSTPQKIIQPQRHIQKNIVDDLFSVKKPLPCSPKSKRVKTLENLSIMDFVQPKQMFGKEPEGYLSNQSNNGSAQNKKSGDNSEKTKNSLKSSSKKSANTGSGQGKTKVEYVSYNSVDKGNSSPFKPLELNVVGEKKANAEVDSLPSENVQESEDDKAFEENRRLRNLGSVEYIRIMSSEKSNANSRHTSKYYSGRKNFKKFQKKASQKAPLQAFLSLSEHKKTEVFDQDDTDLEPVPRLMSKVESIPAGASSDKSGKSSISKKSSNSFKELSPKTNNDEDDEFNDLKFHF
